Measurements as given in publication PMC9911399, “Two distinct binding modes provide the RNA-binding protein RbFox with extraordinary sequence specificity”.
Residue numbers refer to the chain shown, from its start. Some of the results follow.

T1: RBFOX1 RRM (Homo sapiens, UniProt Q9NWB1 109-208)
T1 sequence: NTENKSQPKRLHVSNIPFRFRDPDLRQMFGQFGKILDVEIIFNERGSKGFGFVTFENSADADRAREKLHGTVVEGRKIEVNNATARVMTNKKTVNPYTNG

B1: GCAAGUA (DNA:RNA)
RNA: GGGAGACCGGAAUUCAGAUUGUCCGCAAGUAUUAAAUCCCGUCGUAGCCACCA
DNA 1: CAATCTGAATTCCGGTCTCCC
DNA 2: TGGTGGCTACGACGGGATT
B2: AAUACAG (DNA:RNA)
RNA: B1 RNA with G25A, C26A, A27U, G29C, U30A, A31G
DNA 1: CAATCTGAATTCCGGTCTCCC
DNA 2: TGGTGGCTACGACGGGATT
B3: CUUGUGG (DNA:RNA)
RNA: GGGAGACCGGAAUUCAGAUUGUCCCUUGUGGUUAAAUCCCGUCGUAGCCACCA
DNA 1: CAATCTGAATTCCGGTCTCCC
DNA 2: TGGTGGCTACGACGGGATT
B4: ACAGUGU (DNA:RNA)
RNA: B3 RNA with C25A, U26C, U27A, G31U
DNA 1: CAATCTGAATTCCGGTCTCCC
DNA 2: TGGTGGCTACGACGGGATT
B5: GGCAAUA (DNA:RNA)
RNA: B1 RNA with C26G, A27C, G29A
DNA 1: CAATCTGAATTCCGGTCTCCC
DNA 2: TGGTGGCTACGACGGGATT
B6: GAACGGG (DNA:RNA)
RNA: B1 RNA with C26A, A28C, U30G, A31G
DNA 1: CAATCTGAATTCCGGTCTCCC
DNA 2: TGGTGGCTACGACGGGATT
B7: GCUGAGC (DNA:RNA)
RNA: B3 RNA with C25G, U26C, U29A, G31C
DNA 1: CAATCTGAATTCCGGTCTCCC
DNA 2: TGGTGGCTACGACGGGATT
B8: UAAUUGC (DNA:RNA)
RNA: B3 RNA with C25U, U26A, U27A, G28U, G31C
DNA 1: CAATCTGAATTCCGGTCTCCC
DNA 2: TGGTGGCTACGACGGGATT
B9: AGAGCCA (DNA:RNA)
RNA: B1 RNA with G25A, C26G, A28G, G29C, U30C
DNA 1: CAATCTGAATTCCGGTCTCCC
DNA 2: TGGTGGCTACGACGGGATT

The binders below were run against T1, RBFOX1 RRM (assay: EMSA; HiTS-Eq, 1 nM pool, 10 min; buffer printed only for the single-RNA assays: 10 mM Tris pH 7.5, 150 mM NaCl, 3.4 mM EDTA, 0.001% NP-40, 30 C). Settings: tags: His6 N-terminal (pET28a); label: 5' 32P.
Outline: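 Purified RbFox RRM (wild type or mutant) was equilibrated for 10 min in 50 µL with 1 nM of a 5′-radiolabelled pool of RNA with 7 randomized nucleotides, its flanks annealed to DNA oligonucleotides, across increasing protein concentrations. Free RNA was separated by 8% native PAGE, excised, reverse-transcribed, PCR-barcoded and sequenced on an Illumina HiSeq 2500. Relative association constants came from read-count changes of each variant against the control reaction, normalised to the cognate motif.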

First: B1
Second: B2
The binding signal of the first is higher: 0.00909 KA relative to UGCAUGU for the first, 0.000864 KA relative to UGCAUGU for the second.

First: B3
Second: B4
The binding signal of the first is lower: 0.00448 KA relative to UGCAUGU for the first, 0.00655 KA relative to UGCAUGU for the second.

First: B5
Second: B6
The binding signal of the first is lower: 0.00549 KA relative to UGCAUGU for the first, 0.00804 KA relative to UGCAUGU for the second.

First: B7
Second: B8
The binding signal of the first is higher: 0.0214 KA relative to UGCAUGU for the first, 0.0119 KA relative to UGCAUGU for the second.

B9 was tested, and the binding signal was 0.00273 KA relative to UGCAUGU.
